Results published in PubChem BioAssay (NCI).
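Following 48 hours of exposure in 96-well plates, responses at five concentrations were used to interpolate endpoints linearly. GI50 marks 50% less growth. At the TGI there is no net growth.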

System: NCI-H322M lung
Assay: growth of human tumour cells (NCI), 48 h

COC(=O)C[C@](O)(CCCC(C)(C)O)C(=O)O[C@H]1C(OC)=C[C@@]23CCCN2CCc2cc4c(cc2[C@@H]13)OCO4
GI50: 4.63 µM | TGI: 22.9 µM

O=C1Nc2cc(-c3ccc(NS(=O)(=O)c4ccc(F)c(Cl)c4)cc3)ccc2/C1=C/c1ccc[nH]1
GI50: 2.41 µM | TGI: 28.2 µM
